Results from publication PMC10668032.
This is one part of the list. At the low end of the ranking the order means little.

Molecular target: SIX1 homeodomain (reference allele) (UniProt Q15475)
Experiment: universal protein binding microarray
Conditions: Universal all-10-mer PBM (8x60K, AMADID 030236), 300 nM GST-tagged protein, Alexa Fluor 488 anti-GST; buffer, salt, pH and temperature not stated; high values mean tight binding; most listed sequences are background and not binding sites; double strand, one strand shown

Sequence	binding signal [E-score]
CAAGTTAA	-0.201
AGTATTAG	0.301
GAACGGCA	-0.158
CACGGGAC	-0.159
GTAGAATA	0.125
CAGAATAG	0.00916
ATCCGAGC	0.24
CATAAAAC	-0.157
CGATTCCG	-0.0104
ACCCCCAG	0.127
TAGATCCA	0.227
CAAGGTGC	-0.0768
AGTTTGTG	-0.014
CATAAAAA	-0.182
CCAACGAA	-0.195
GCCTAGAA	-0.0991
AAGGGGGA	0.125
ATTTCGAG	-0.114
AGGTGCGA	-0.062
GACTTAGA	-0.251
CATTACAA	-0.138
AACGGGAT	0.243

Sequence	binding signal [E-score]
ATATTTAG	0.118
AAGTCCAG	-0.23
AGGCGCTC	-0.243
CTGTCCGA	-0.142
ATCGTTTG	0.196
CATAAGCC	-0.0998
ATGCTCTC	-0.165
CCAGACGA	-0.156
AAGCTGAT	0.24
TAGGTGGA	0.0029
GTAGCCCA	-0.137
AAGGGCAT	-0.148
TGACCTCA	-0.123
CACGAGTG	-0.104
ACTAAGGC	-0.271
ACGTGGAC	0.0224
CAGGGTCG	0.109
CGTGTTAA	0.0352
CGATCCAG	0.212
TGGGGACA	-0.0681
CGCGGGTC	0.0261
CAAGCAGA	0.0514

Sequence	binding signal [E-score]
AGTAGGGA	-0.0324
AATCGTTG	0.0357
CCTGAAGG	-0.121
CCGTCGCC	-0.166
CCTCGCAG	-0.0486
CTCACAAC	-0.0592
CAGATAGC	0.171
AATAGCTC	-0.129
GGAACAGA	-0.11
CCACTATC	0.227
CCGTCCAG	-0.00417
GACCTTGA	-0.193
TATGAGGA	0.0339
AGAGTTAG	-0.194
CTAAACAC	-0.161
GATTCGCC	-0.0444
CACAATGC	0.00304
ACAACGGG	-0.124
AATGAAGT	-0.238
CGTGTGGA	-0.0925
CGACTCTC	-0.0633
ATTTCGCC	0.0575

Sequence	binding signal [E-score]
ATTATAGC	0.176
TACAGCCA	-0.0567
GTGTCAAC	0.287
CGACATTA	-0.0192
GTCCAAGA	-0.101
AAAGTCCA	-0.232
CCTCATAG	-0.0882
ATGGGTCA	0.0525
AGGGGACG	0.0918
AATCTGTC	0.0252
CACTCAGG	-0.0211
ATGCAATC	0.0546
CAAATTTC	-0.179
AGGACTTC	-0.106
AACTAGCC	-0.133
GAATTTGA	-0.133
ACTAGTCT	-0.189
ACTCCCGA	0.0226
AAGTATTC	0.0246
ACGCCGAC	-0.0352
